Reference: ChEMBL document CHEMBL4888484, “Replenishing the malaria drug discovery pipeline: Screening and hit evaluation of the MMV Hit Generation Library 1 (HGL1) against asexual blood stage Plasmodium falciparum ,using a nano luciferase reporter read-out” (2022)
About 540 (0.36%) of roughly 150,000 compounds showed an effect of 50% or more. The list shows a part of the results.

Each molecule was assayed on Plasmodium falciparum (assay: Primary screen in NF54 nanoGlo assay, in single point, at 2uM, 72h; a lower Z score goes with more inhibition). Details: timepoint 72 hour.
Type: functional, Erythrocyte

Compound	% Inhibition	Z score
Cc1ccc(NC(=O)c2cn(C)nn2)cc1	-9%	1.2
Cc1cc(-n2nc(C)cc2NS(=O)(=O)c2cc(C)oc2C)nc(C)n1	-3%	0.63
Cc1cc(N)ccc1N1CCOCC1=O	-4%	0.7
CCN(C(C)=O)c1nc(CN(Cc2ccc(Cl)c(Cl)c2)C2CC2)cs1	3%	-0.55
COc1ccc2c(C)c(C(=O)N3CCCO[C@@H](CN4CCCC4)C3)oc2c1	-6%	0.92
CC(C)c1nc2cc(NC(=O)CCNC(=O)c3cnccn3)ccc2n1C	-9%	1.53
O=C(NCC(NC(=O)C1CCOC1)C1CCCCC1)C1CCOC1 (stereo not given)	2%	-0.25
CCn1nc(C)c(Oc2ccccc2O)c1C	6%	-1.07
Cc1cccc(Cn2nc(CC(N)=O)nc2CCC(F)(F)F)c1	-3%	0.53
CCCCn1c(C(=O)NCC(C)C)cc2cc(NC(=O)c3ccccc3Cl)ccc21	-3%	0.4
OC(CC1CCCCCN1Cc1cnc2ccccc2n1)c1cccs1 (stereo not given)	-9%	1.62
Cc1nc(-c2ccc(C)c(N3CCN(C(=O)Nc4ccccc4C(F)(F)F)CC3)c2)no1	-11%	1.43
CCCCN(Cc1ccccc1)c1ccc(NS(=O)(=O)c2cccc(C)c2)cc1C(=O)O	-15%	1.44
C[C@@H](c1ccon1)N(C)C(=O)c1[nH]nc2c1CCC2	-8%	1.25
Cc1nn(C(C)(C)C)cc1[C@H](C)NC(=O)c1c[nH]c(C(F)(F)F)c1	-10%	1.63
Cc1nnc(NC2CC3CCC2O3)c(C#N)c1C (stereo not given)	-6%	0.95
CCC1=NC(c2ccccc2)(c2ccccc2)c2ccccc2O1	8%	-1.58
O=C(O)CCN1C(=O)c2ccc(NC(=O)Cc3ccc(Cl)cc3)cc2C1=O	1%	-0.08
CN(CCO)C(=O)COc1ccc(-c2ccccc2)cc1CN1CCC(c2nncn2C)CC1	-3%	0.37
C=C(C)CN1CCN(CCn2cnnc2C)CC1	-1%	0.13
CCCn1cc(CCNS(=O)(=O)CCC)c2cccnc21	-11%	1.25
Cc1cc(C)nc(N[C@H]2CN(CC(=O)N(C)C)C[C@@H]2C(C)C)n1	1%	-0.12

Compound	% Inhibition	Z score
CCn1cccc1-c1nc(C)c(C(=O)NCCc2ccc(OC)c(OC)c2)s1	-4%	0.64
O=C(C1=CCCCO1)N1CCCCCC1	-8%	0.82
CC(C)Cc1nc(N2CCN(C(=O)c3ccccc3F)CC2)c2c(-c3cccc(Oc4ccccc4)c3)noc2n1	-9%	1.76
CCCN1CC2(CCN(C(=O)c3cccc(C(C)=O)c3)CC2)C[C@H]1C(=O)O	-10%	1.66
O=C(O)[C@H]1CCN(c2nc(C3CC3)nc3[nH]ccc23)C1	-10%	1.99
Cc1ncc(CN2CCO[C@@]3(COCCN(C(=O)C(C)C)C3)C2)n1C	4%	-0.8
O=C(O)CN(Cc1ccccc1Br)CC1CC2CC2C1 (stereo not given)	-1%	0.21
COc1ccc(NC(C)=O)cc1NC(=O)CCC(=O)c1ccc2c(c1)OCCCO2	6%	-1.04
COc1ccc(CNC2CCCC(O)CCC2)cc1 (stereo not given)	-10%	1.05
COc1ccc(C(=O)NC(C)(C)C(C)(C)O)c(O)c1	-7%	1.06
Cc1cnn(C2CCN(S(=O)(=O)CCC3CCCC3)CC2)c1	-2%	0.43
Cc1nc(C(=O)N(C)Cc2sccc2C)c(C)[nH]1	6%	-0.88
Cc1ccc(C(=O)N(C)C)cc1N1C(=O)[C@H]2CCCN2C1=O	1%	-0.1
Cc1cc(N(C)C)ccc1NC(=O)C1CN(Cc2ccccc2)CC1C(F)(F)F (stereo not given)	-5%	0.85
Cc1nnsc1C(=O)N[C@@H](C)c1ccn(C)n1	0%	-0.07
O=C(NC1CC(c2cccc(Cl)c2)C1)N1CCO[C@H](c2ccco2)C1 (stereo not given in full)	4%	-0.46
Cc1oc(-c2ccc(Cl)cc2)nc1C(=O)N1CCCN(C)c2nc3ccccc3nc21	-3%	0.38
CN(Cc1cccc(OC(F)(F)F)c1)Cc1nnc[nH]1	-4%	0.62
Cc1cc(=O)[nH]c(NCCNC(=O)Cn2cnc3ccccc3c2=O)n1	0%	-0.02
CS(=O)(=O)c1ccnc(NC(=O)NC2CC3CCC(C3)C2)c1 (stereo not given)	-7%	1.35
COc1cc(NC(=O)c2cc(-c3cccc4ccccc34)[nH]n2)cc(OC)c1OC	41%	-4.65
CC[C@H](C)n1ncc(C(=O)Nc2cncnc2N2CCCC2)c1C	-10%	1.25

Compound	% Inhibition	Z score
COCc1n[nH]c(C2(N3CCCC3)CCCC2)n1	-2%	0.38
Cc1nnsc1Cn1cnc(C(C)(C)C)c1	-4%	0.81
COc1ncc(Cl)c(N(C)CCN2CCOC(C)(C)C2)n1	3%	-0.26
O=S(=O)(CCC1CCOCC1)N[C@H](c1cccnc1)C1CC1	32%	-3.57
Cc1cc(=O)[nH]c(NCCNC(=O)C2(c3ccc(Cl)cc3)CCC2)n1	4%	-0.65
Cc1c(Cl)cccc1N1C(=O)C[C@H](N2CCN(CCOc3ccccc3)CC2)C1=O	-6%	0.5
Cc1nc2ccccc2c(NC(=O)C2=COCCO2)c1C(C)C	-3%	0.32
COCCN1CCn2cc(C(=O)NCCN3CCN(c4ccccc4)CC3)nc2C1=O	2%	-0.36
CN(Cc1cc[nH]n1)S(=O)(=O)c1cc(F)c(F)cc1F	-1%	0.11
COc1cccc(S(=O)(=O)N2[C@@H](CO)CN(C)C(=O)[C@@H]2C)c1	-6%	0.86
C[C@H]1Cc2ccccc2N1CCC(=O)Nc1ccccc1	2%	-0.31
O=C(NC1CCOC1C1CC1)c1ccc2[nH]nnc2n1 (stereo not given)	4%	-0.36
CCc1nnc(CN(C)c2ccc3cc[nH]c3n2)o1	0%	0.02
Cc1nc(COc2ccccc2C(=O)Nc2ccc3ccccc3c2)cs1	-29%	3.41
O=C(Nc1cc(Cl)cc(C(=O)c2ccccc2)c1Cl)c1cc(Br)cc(Br)c1O	3%	-0.45
O=S1(=O)CC[C@H](N(C2CC2)S(=O)(=O)c2ccccc2F)C1	1%	-0.11
COc1cc(-c2ccc(C(=O)N3CC[C@H]4CC[C@@H](C3)N4C)cc2)nc(N)n1	-1%	0.14
O=C(NC1CC1)c1ccc2c(=O)n(-c3ccccc3)c(N3CCCCC3)nc2c1	-13%	2.36
CCOc1ccc([C@H](C)NC2CCN(OC)CC2)cc1	-15%	2.31
C[C@H](NC(=O)COCC(N)=O)c1nc(-c2ccccn2)no1	-14%	1.99
COC(=O)c1cc(NC(=O)Cc2ccccc2)c2oc(Cc3ccccc3)nc2c1	9%	-1.22
CCc1ccc([C@@H]2CCCCCN2CC(=O)NC2CCOCC2)o1	-18%	1.66

Compound	% Inhibition	Z score
COC(=O)Nc1cccc(C(=O)N2CCC3CN(C(=O)OC(C)(C)C)CC3C2)c1 (stereo not given)	-7%	0.68
CN(CCOC(=O)c1ccc(F)cc1)C(C)(C)C	0%	0.01
CCCCNC(=O)CN1C(=O)CCn2nc(-c3ccc(C)cc3)cc21	-6%	1.21
O=C(c1nc2ccccc2[nH]c1=O)N1CCO[C@H](c2cccnc2)C1	15%	-1.9
O=C1CC[C@@H](C(=O)NCCc2ccc(O)cc2)N1	2%	-0.22
COc1cc(NC(=O)c2csc(-c3cn(C)c4ncccc34)n2)cc(OC)c1	7%	-1.29
COc1ccccc1Oc1nc(N2CCC(C)CC2)nc2c1CN(Cc1ccc(F)cc1)CC2	11%	-1.47
CCN(C)c1nc(N2CCN(c3ccccc3)CC2)nc2c1CN(S(=O)(=O)c1cccc(C)c1)CC2	-11%	1.45
CNS(=O)(=O)c1cc(-c2nc(C3CN4CCCC4CO3)no2)c(C)o1 (stereo not given)	-8%	1.14
CC(C)(C)OC(=O)NCc1nc2ccccn2c1Cl	-3%	0.54
CC1=CCN(C(=O)Nc2ccnn2[C@@H](C)C(C)C)CC1	-8%	0.83
COc1ccccc1CN1C[C@@H](c2nc(C)no2)CCC1=O	-3%	0.27
CC[C@H](C)N1CC(=O)N(c2ccns2)C1=O	-14%	2.59
CCOc1cccc(CCNS(=O)(=O)CCCC#N)n1	-7%	0.58
CCc1nn(-c2ccc(OC)cc2)c(Oc2ccccc2F)c1CCC(=O)NCC1CC1	9%	-0.93
Cc1nn(C)c(C)c1NC(=O)Nc1c(Cl)cc(C)c2ncccc12	3%	-0.59
Cc1ccc(C(=O)N2Cc3c(-c4nc(C5CCOCC5)no4)nn(C)c3C2)cc1F	4%	-0.66
Cc1nc2c(C#N)cnn2c(O)c1CC(=O)N[C@@H](C)C(C)C	-4%	0.64
O=C(O)[C@@H]1CN(c2nc(-c3ccccn3)nc3sccc23)CCO1	-16%	1.65
